Results published in paper PMC10092763.
No constants are given. Whether binding was seen depends on the method and setting. For some assays here: Binding seen in cells or lysates may run through a third protein. Some entries that bind do so weakly or less than the wild type. For some assays here: Where a sequence is shown, tags or fusion partners need not be part of it. Each block holds one molecule with its values, some of them ahead of it.

By UniProt entry, the sequences of proteins in these tests, tags left out.
UniProt Q02962: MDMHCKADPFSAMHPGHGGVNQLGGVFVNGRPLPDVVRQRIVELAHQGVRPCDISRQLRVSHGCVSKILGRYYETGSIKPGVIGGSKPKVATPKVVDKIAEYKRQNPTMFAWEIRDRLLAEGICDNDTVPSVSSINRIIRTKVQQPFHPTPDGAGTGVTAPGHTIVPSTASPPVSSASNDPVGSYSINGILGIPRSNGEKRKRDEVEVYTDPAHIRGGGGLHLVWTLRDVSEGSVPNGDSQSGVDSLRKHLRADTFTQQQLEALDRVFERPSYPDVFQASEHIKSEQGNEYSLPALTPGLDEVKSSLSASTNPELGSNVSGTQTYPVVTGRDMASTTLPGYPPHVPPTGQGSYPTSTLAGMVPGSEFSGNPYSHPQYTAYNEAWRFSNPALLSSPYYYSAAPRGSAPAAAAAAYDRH

How the values were obtained:
FLAG-tagged AFF4 (human) [1] = target: T1, FLAG-tagged AFF4 (human) (UniProt Q9UHB7); assay: pull-down; FLAG-AFF4 enriched from BxPC-3 cells and washed with 0.5% NP40, not treated with lambda phosphatase, then incubated with His tagged PAX2 purified from E. coli; both purified
T1 sequence: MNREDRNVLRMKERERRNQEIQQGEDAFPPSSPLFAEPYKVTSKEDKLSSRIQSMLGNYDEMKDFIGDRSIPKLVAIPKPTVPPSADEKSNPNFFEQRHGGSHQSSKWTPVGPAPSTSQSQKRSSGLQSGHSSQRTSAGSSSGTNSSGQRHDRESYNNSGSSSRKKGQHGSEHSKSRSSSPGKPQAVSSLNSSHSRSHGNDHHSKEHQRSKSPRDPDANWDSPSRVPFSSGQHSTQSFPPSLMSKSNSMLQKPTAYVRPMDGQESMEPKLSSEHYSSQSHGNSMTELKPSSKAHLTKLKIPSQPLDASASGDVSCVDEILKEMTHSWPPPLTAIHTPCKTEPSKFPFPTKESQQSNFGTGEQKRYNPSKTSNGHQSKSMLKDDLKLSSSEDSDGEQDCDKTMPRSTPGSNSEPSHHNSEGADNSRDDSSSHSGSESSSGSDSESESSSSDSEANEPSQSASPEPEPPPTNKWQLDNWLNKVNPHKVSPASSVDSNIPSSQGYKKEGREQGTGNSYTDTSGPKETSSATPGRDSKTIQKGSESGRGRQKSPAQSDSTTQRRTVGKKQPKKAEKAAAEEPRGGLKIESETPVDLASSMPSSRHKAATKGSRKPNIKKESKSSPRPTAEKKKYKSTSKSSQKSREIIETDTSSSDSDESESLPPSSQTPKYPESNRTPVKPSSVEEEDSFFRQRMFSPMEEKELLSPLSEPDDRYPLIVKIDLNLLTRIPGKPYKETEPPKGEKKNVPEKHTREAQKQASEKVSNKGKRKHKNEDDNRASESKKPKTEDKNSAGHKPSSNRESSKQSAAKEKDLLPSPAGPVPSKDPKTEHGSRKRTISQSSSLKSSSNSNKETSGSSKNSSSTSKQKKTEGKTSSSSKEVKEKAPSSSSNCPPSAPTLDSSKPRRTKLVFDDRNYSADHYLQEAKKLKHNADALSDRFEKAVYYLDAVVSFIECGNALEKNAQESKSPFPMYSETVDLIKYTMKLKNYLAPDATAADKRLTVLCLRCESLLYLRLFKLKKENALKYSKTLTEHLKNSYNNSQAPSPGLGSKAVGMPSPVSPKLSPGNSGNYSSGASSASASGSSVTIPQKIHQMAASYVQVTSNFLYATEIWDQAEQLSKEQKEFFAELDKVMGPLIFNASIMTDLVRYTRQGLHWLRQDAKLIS

FLAG-tagged AFF4 (human) [2] = target: T1, FLAG-tagged AFF4 (human); assay: condition: only FLAG-AFF4 treated with λPPase (10 nM) for one hour before incubation; pull-down; FLAG-AFF4 enriched from BxPC-3 cells and washed with 0.5% NP40, treated with lambda phosphatase (10 nM) for one hour, then incubated with His tagged PAX2 purified from E. coli; both purified
FLAG-tagged AFF4 (human) [3] = target: T1, FLAG-tagged AFF4 (human); assay: co-IP; FLAG-AFF4 transiently transfected into AsPC-1 or BxPC-3 cells; FLAG-M2 beads precipitate FLAG-AFF4
[4] = target: PAX2 (human (endogenous in AsPC-1, BxPC-3, PANC-1)) (UniProt Q02962); assay: co-IP; reverse immunoprecipitation with an antibody against PAX2
FLAG-tagged PAX2 = FLAG-tagged PAX2 (UniProt Q02962); assay: co-IP; HA-tagged AFF4 (WT or serine mutants) transfected with or without FLAG-tagged PAX2 into BxPC-3 cells; FLAG-M2 beads precipitate FLAG-PAX2

Molecule: PAX2 (from UniProt Q02962 1-417)
binding (FLAG-tagged AFF4 (human) [3]): binds

B1: AFF4 (found in the reverse immunoprecipitation with an antibody against PAX2) (protein, UniProt Q9UHB7-1 1-1163)
chain: T1 sequence
binding [4]: binds

Next, values leading:

binding (FLAG-tagged AFF4 (human) [1]): binds
binding (FLAG-tagged AFF4 (human) [2]): no binding
Molecule: His tagged PAX2 (from UniProt Q02962 1-417)

binding (FLAG-tagged PAX2): binds
B2: HA-tagged AFF4 WT (protein, UniProt Q9UHB7-1 1-1163)
chain: T1 sequence
